{
  "source": "paper PMC4336329",
  "about": "(PLoS ONE, 2015)",
  "note": "The campaign covered roughly 310,000 compounds. About 2,200 (0.71%) showed an effect of 50% or more. The effect is printed as a negative number. The list shows a part of the results.",
  "data": [
    {"biological_target": "human ether-à-go-go-related gene (hERG) potassium channel (human, UniProt Q12809)", "sequence (Q12809 whole entry, looked up)": "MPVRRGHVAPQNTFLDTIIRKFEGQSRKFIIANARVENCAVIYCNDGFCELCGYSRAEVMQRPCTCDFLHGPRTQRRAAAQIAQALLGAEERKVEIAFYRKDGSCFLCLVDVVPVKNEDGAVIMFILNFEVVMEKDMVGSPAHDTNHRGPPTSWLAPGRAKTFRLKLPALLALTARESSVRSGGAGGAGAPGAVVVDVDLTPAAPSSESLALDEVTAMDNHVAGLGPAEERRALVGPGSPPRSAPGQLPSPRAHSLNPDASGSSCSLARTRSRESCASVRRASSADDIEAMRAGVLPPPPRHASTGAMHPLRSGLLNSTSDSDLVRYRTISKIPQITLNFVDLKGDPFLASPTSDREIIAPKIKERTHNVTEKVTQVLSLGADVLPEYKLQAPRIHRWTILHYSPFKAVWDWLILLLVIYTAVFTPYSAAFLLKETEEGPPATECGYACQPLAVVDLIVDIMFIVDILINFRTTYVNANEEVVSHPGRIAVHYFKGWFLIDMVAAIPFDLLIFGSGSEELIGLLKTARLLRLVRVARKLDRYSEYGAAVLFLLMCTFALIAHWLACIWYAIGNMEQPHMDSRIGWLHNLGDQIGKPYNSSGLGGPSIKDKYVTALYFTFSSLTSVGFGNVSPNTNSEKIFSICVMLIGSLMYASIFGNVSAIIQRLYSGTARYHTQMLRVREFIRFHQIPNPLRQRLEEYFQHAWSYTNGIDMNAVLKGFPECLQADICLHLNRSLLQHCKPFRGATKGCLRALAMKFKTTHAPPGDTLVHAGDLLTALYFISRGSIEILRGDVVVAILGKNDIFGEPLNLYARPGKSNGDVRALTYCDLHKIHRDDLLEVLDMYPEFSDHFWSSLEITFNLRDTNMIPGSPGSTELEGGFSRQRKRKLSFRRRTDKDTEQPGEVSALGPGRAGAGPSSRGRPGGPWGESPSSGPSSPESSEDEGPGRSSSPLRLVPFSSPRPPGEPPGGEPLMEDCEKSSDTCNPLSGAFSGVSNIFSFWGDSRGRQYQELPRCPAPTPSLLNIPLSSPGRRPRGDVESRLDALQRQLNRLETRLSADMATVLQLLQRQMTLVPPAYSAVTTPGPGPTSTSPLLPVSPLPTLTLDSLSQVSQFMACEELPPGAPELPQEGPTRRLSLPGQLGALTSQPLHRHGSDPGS", "assay": "primary screen, population patch clamp on CHO cells stably expressing hERG", "units": {"hERG current change (%, negative = inhibition) at 1uM": "%"}, "values": [
      {"smiles": "Cc1c(CN2CCc3c([nH]c4ccccc34)C2CC(C)C)cnn1C", "note": "(centres unmarked)", "hERG current change (%, negative = inhibition) at 1uM": -4.85},
      {"smiles": "COCCOc1cc(COC)nc(-c2cccc(C)c2)n1", "hERG current change (%, negative = inhibition) at 1uM": 10.3},
      {"smiles": "CC(CN1CCN(C)CC1)OC(=O)c1cccc(Cl)c1.Cl", "note": "(centres unmarked)", "hERG current change (%, negative = inhibition) at 1uM": 4.12},
      {"smiles": "COc1ccccc1N1CCN(C(=O)C2CCN(C(=O)c3cccc(Cl)c3)CC2)CC1", "hERG current change (%, negative = inhibition) at 1uM": 9.66},
      {"smiles": "COc1ccc(N2CCN(S(=O)(=O)CCNC(=O)C3CCCCC3)CC2)cc1", "hERG current change (%, negative = inhibition) at 1uM": 11.9},
      {"smiles": "C=CCOc1ccc(/C=C/C(=O)OCC(=O)NCC(=O)Nc2c(C)cc(C)cc2C)cc1", "hERG current change (%, negative = inhibition) at 1uM": 6.11},
      {"smiles": "O=C1CN(C(=O)N[C@@H](Cc2ccccc2)C(=O)N[C@H](C(=O)O)c2ccccc2)c2ccccc2N1", "hERG current change (%, negative = inhibition) at 1uM": 23.8},
      {"smiles": "O=C(C1CCCN(Cc2nc(-c3cccs3)no2)C1)N1CCOCC1", "note": "(centres unmarked)", "hERG current change (%, negative = inhibition) at 1uM": 19.7},
      {"smiles": "CC(C)CC(=O)Nc1nc2ccc(S(C)(=O)=O)cc2s1", "hERG current change (%, negative = inhibition) at 1uM": 4.38},
      {"smiles": "COc1ccc(N2CCN(C(=O)C(=O)c3cn(CC(=O)N4CCCCCC4)c4ccccc34)CC2)cc1", "hERG current change (%, negative = inhibition) at 1uM": -11.2},
      {"smiles": "CCn1c2c(c3cc(C(=O)O)ccc31)CCCC2=O", "hERG current change (%, negative = inhibition) at 1uM": 16.7},
      {"smiles": "O=C(COC(=O)CCc1ccc(S(=O)(=O)N2CCOCC2)cc1)NCc1ccccc1", "hERG current change (%, negative = inhibition) at 1uM": 5.89},
      {"smiles": "FC(F)(F)c1nnc2c3ccccc3c(Cl)nn12", "hERG current change (%, negative = inhibition) at 1uM": 19.4},
      {"smiles": "CC(C)OC(=O)Nc1ccc2c(c1)N(C(=O)N1CCN(C)CC1)c1ccccc1CC2.O=C(O)C(=O)O", "hERG current change (%, negative = inhibition) at 1uM": 0.862},
      {"smiles": "OC(CCN1CCOCC1)(c1ccc(Cl)cc1)C1CCCCC1", "note": "(centres unmarked)", "hERG current change (%, negative = inhibition) at 1uM": 7.61},
      {"smiles": "COc1ccc(CC(=O)N(C)CC(=O)Nc2cccc(F)c2)cc1S(=O)(=O)N1CCOCC1", "hERG current change (%, negative = inhibition) at 1uM": 11.3},
      {"smiles": "Cc1cc(C)nc(N(C#N)Cc2ccccc2)n1", "hERG current change (%, negative = inhibition) at 1uM": 1.61},
      {"smiles": "COc1ccccc1C(=O)NC(=O)COC(=O)c1cccc(OC(F)F)c1", "hERG current change (%, negative = inhibition) at 1uM": 8.76},
      {"smiles": "Cc1onc(-c2c(Cl)cccc2Cl)c1C(=O)NCCN1CCOCC1", "hERG current change (%, negative = inhibition) at 1uM": 9.38},
      {"smiles": "O=C(N1CCOCC1)N(Cc1ccco1)CC1CCCO1", "note": "(centres unmarked)", "hERG current change (%, negative = inhibition) at 1uM": -11.8},
      {"smiles": "COc1cccc(CN2CCNC(=O)C2CC(=O)NCc2cn3ccccc3n2)c1OC", "note": "(centres unmarked)", "hERG current change (%, negative = inhibition) at 1uM": 21.8},
      {"smiles": "O=C(Cn1nnnc1CN1CCOCC1)N1CCC(c2cccc(Cl)c2)C1", "note": "(centres unmarked)", "hERG current change (%, negative = inhibition) at 1uM": 4.36},
      {"smiles": "O=C(Nc1ccccc1)c1nccn1Cc1ccc(F)cc1", "hERG current change (%, negative = inhibition) at 1uM": 11.3},
      {"smiles": "Cn1c(SCC(=O)NCC2CCCO2)ncc(C(=O)Nc2ccc(Cl)cc2)c1=O", "note": "(centres unmarked)", "hERG current change (%, negative = inhibition) at 1uM": -7.82},
      {"smiles": "CCN1CCN(CCNC(=O)c2ccc3nc(-c4cccc(C)c4)c(-c4cccc(C)c4)nc3c2)CC1", "hERG current change (%, negative = inhibition) at 1uM": -1.25},
      {"smiles": "CC(=O)c1ccc(NC(=O)C(C)OC(=O)c2ccc(NS(=O)(=O)c3ccc(F)c(F)c3)cc2)cc1", "note": "(centres unmarked)", "hERG current change (%, negative = inhibition) at 1uM": 7.25},
      {"smiles": "Nc1nonc1-n1nnc(C(=O)N/N=C/c2c[nH]c3ccccc23)c1-c1ccccc1", "hERG current change (%, negative = inhibition) at 1uM": 11.5},
      {"smiles": "Cc1ccc(N(C(=O)CNC(=O)c2cccs2)C(C(=O)NC2CCCC2)c2ccncc2)cc1", "note": "(centres unmarked)", "hERG current change (%, negative = inhibition) at 1uM": 18.8},
      {"smiles": "O=C(CSc1nnc(-c2cccs2)n1C1CC1)NC1CCS(=O)(=O)C1", "note": "(centres unmarked)", "hERG current change (%, negative = inhibition) at 1uM": 8.58},
      {"smiles": "O=C(NCCN1CCOCC1)[C@H](Cc1ccccc1)N1C(=O)c2ccccc2C1=O", "hERG current change (%, negative = inhibition) at 1uM": 5.81},
      {"smiles": "O=C(NNC(=O)c1csc(N2CCOCC2)n1)c1cccnc1", "hERG current change (%, negative = inhibition) at 1uM": 10.9},
      {"smiles": "CC(=O)N1N=C(c2ccccc2)CC1c1cn(Cc2ccccc2)c2ccccc12", "note": "(centres unmarked)", "hERG current change (%, negative = inhibition) at 1uM": 3.58},
      {"smiles": "Cc1ccc(OCC(=O)Nc2ccc(N3CCN(S(C)(=O)=O)CC3)cc2)c(C)c1", "hERG current change (%, negative = inhibition) at 1uM": 10.6},
      {"smiles": "O=C(O)C(=O)O.O=C(c1ccncc1)N1CCN(C2CCC(c3ccccc3)CC2)CC1", "note": "(centres unmarked)", "hERG current change (%, negative = inhibition) at 1uM": -10.9},
      {"smiles": "COc1ccc(CCNC(=O)C(C)SCc2ccccc2)cc1", "note": "(centres unmarked)", "hERG current change (%, negative = inhibition) at 1uM": 15.3},
      {"smiles": "COc1ccc2nc(COC(=O)c3ccco3)c(C(C)=O)[n+]([O-])c2c1", "hERG current change (%, negative = inhibition) at 1uM": 9.31},
      {"smiles": "CCOc1ccc(C(=O)OCC(=O)NCc2ccccc2)cc1OCC", "hERG current change (%, negative = inhibition) at 1uM": -0.272},
      {"smiles": "Cc1ccc(NC(=O)COC(=O)c2ccco2)cc1C", "hERG current change (%, negative = inhibition) at 1uM": 5.2},
      {"smiles": "CN(C)c1ncc(C2=C(Cl)C(=O)C(N3CCCC3)=C(Cl)C2=O)s1", "hERG current change (%, negative = inhibition) at 1uM": 0.221},
      {"smiles": "O=C(Nc1cccc(F)c1)C1CCN(C(=O)c2ccco2)CC1", "hERG current change (%, negative = inhibition) at 1uM": -3.66},
      {"smiles": "C=CCn1c(CSc2nnc(-c3ccccc3)n2C)n[nH]c1=S", "hERG current change (%, negative = inhibition) at 1uM": 12.4},
      {"smiles": "CCOc1ccccc1NC(=O)C1COc2ccccc2O1", "note": "(centres unmarked)", "hERG current change (%, negative = inhibition) at 1uM": 13.8},
      {"smiles": "Cc1cc2n(n1)C(c1sccc1C)Nc1ccccc1-2", "note": "(centres unmarked)", "hERG current change (%, negative = inhibition) at 1uM": -11.3},
      {"smiles": "CC1CN(C(=O)N(C)C)CCN1C(=O)N(C)C", "note": "(centres unmarked)", "hERG current change (%, negative = inhibition) at 1uM": 14.7}
    ]}
  ]
}
